{"source": "patent US12280114B2", "about": "“Extraction of plant source “medicinal soup” and manual preparation of “herbal medicine” and related products” (BEIJING BAISHIHEKANG PHARMACEUTICAL TECHNOLOGY (BSJPHARMA) …, priority 2018, dated 2025)", "key": {"[1]": {"system": "A549 cells", "assay": "Flow cytometry of green fluorescent protein delivered by lipid into A549 cells", "format": "cell-based, human", "conditions": "6 hours", "description": "(§1) Experimental method: The bencaosome was prepared by reverse evaporation of ether. 0.2 nmol green fluorescent protein dissolved in 20 μl water was added to 100 μl ether solutions containing 0 μg, 1 μg, 3 μg lipid respectively. After fully mixing, sonication was conducted for 3 min. After evaporation at 60° C. to remove organic solvent, the bencaosome solution was obtained by hydrating with 100 μL opti-MEM. Then the bencaosome was added to A549 cells and co-incubated for 6 hours. The samples were collected and tested. After washing three times with PBS, the samples were digested with trypsin for three minutes. The trypsin was removed, and then the samples were washed with PBS and blown off. Accuri® C6 instrument was used to measure.\nas §1, with “method.” for “of ether.”\nExperimental method: The bencaosome was prepared by heating method. 0.2 nmol green fluorescent protein dissolved in 100 μl water was added to 0 μL, 1 μL, 3 μL of lipid respectively. After fully mixing, the bencaosome solution was obtained by heating at 90° C. for 15 min. Then the bencaosome was added to A549 cells and co-incubated for 6 hours. The samples were collected and tested. After washing three times with PBS, the samples were digested with trypsin for three minutes, the trypsin was removed, and then the samples were washed with PBS and blown off. Accuri® C6 instrument was used to measure.\nas §1, with “reverse evaporation method. 0.2 nmol” for “reverse evaporation of ether. 0.2 nmol”, “was added 100 μl” for “was added to 100 μl”, “min. After evaporated at 60°” for “min. After evaporation at 60°”, “for three minutes, the trypsin was” for “for three minutes. The trypsin was”, “removed, and the samples” for “removed, and then the samples”"}, "[2]": {"system": "A549 cells", "assay": "Confocal fluorescence microscopy of green fluorescent protein delivered by lipid into A549 cells", "format": "cell-based, human", "conditions": "reverse evaporation method; 6 hours", "description": "Experimental method: The bencaosome was prepared by reverse evaporation method. 0.2 nmol green fluorescent protein dissolved in 20 μl water was added to 100 μl ether solutions containing 0 μg, 0.25 μg, 0.75 μg lipid respectively. After fully mixing, sonication was conducted for 3 min. After evaporated at 60° C. to remove organic solvent, the bencaosome solution was obtained by hydrating with 100 μL opti-MEM. Then the bencaosome was added to A549 cells and co-incubated for 6 hours. The samples were collected and tested. After washing three times with PBS, the samples were fixed with 4% paraformaldehyde. After washing three times with PBS, the samples were stained with Alexa Fluor® 488 phalloidin for 30 min. After washing three times with PBS, the samples were stained with Dapi for 5 min, then washed with PBS and sealed for observation."}, "[3]": {"system": "A549 cells", "assay": "RT-qPCR detection of nucleic acid delivered by lipid into A549 cells", "format": "cell-based, human"}, "[4]": {"system": "MRC-5 cells", "assay": "RT-qPCR detection of nucleic acid delivered by lipid into MRC-5 cells", "format": "cell-based, human"}, "[5]": {"assay": "In vivo delivery of small RNA into mouse blood, stomach, small intestine and liver via gavage (RT-qPCR)", "conditions": "intragastric, each small RNA 1 nmol/animal, lipid 10 μl/animal; 6 hours"}, "[6]": {"system": "A549 cells", "assay": "Confocal fluorescence microscopy of lipid-delivered nucleic acid in A549 cells", "format": "cell-based, human", "conditions": "boiling method; 6 hours", "description": "(§2) […] Then the mixture was dropped into A549 cells, and after 6 hours of co-incubation, the samples were washed three times with PBS, fixed with 4% paraformaldehyde, washed three times with PBS, stained with Alexa Fluor® 488 phalloidin for 30 min, washed 3 times with PBS, and stained with DAPI for 5 min, washed with PBS, and then sealed.\nas §2, with “Then,” for “Then”, “PBS washed,” for “washed with PBS,”"}, "[7]": {"conditions": "10 μg/mL lipid, reverse evaporation method"}, "[8]": {"conditions": "single lipid, HJT-sRNA-m7, boiling method"}}, "data": [{"compound": "CCCCCCCCCCCCCCCC(=O)OCC(COP(=O)(O)OCCN)OC(=O)CCCCCCCCCCCCCCC", "note": "(centres unmarked) [lipid 71, PE(16:0/16:0)]", "values": [{"measurement": "efficiency to deliver green fluorescent protein into A549 cells", "setting": "[1]; [7]", "value": 7.1, "unit": "%"}, {"measurement": "entry of green fluorescent protein into A549 cells (confocal microscope)", "setting": "[2]", "value": "could effectively deliver protein into A549 cells"}]}, {"compound": "CCCCCC/C=C\\CCCCCCCC(=O)O[C@H](COC(=O)CCCCCCCCCCCCCCC)COP(=O)(O)OCCN", "note": "[lipid No. 38, PE(16:0/16:1)]", "values": [{"measurement": "delivery of double-stranded RNA into A549 cells (RT-qPCR)", "setting": "[3]; single lipid 2.5 μL, HJT-sRNA-m7 100 nM, boiling or reverse evaporation method", "value": "delivered double-stranded RNA into A549 and MRC-5 cells"}, {"measurement": "amount of HJT-sRNA-m7 that entered the cells (RT-qPCR)", "setting": "[4]; Example 2-1, MRC-5, double-stranded 100 nM, 24 hours, single lipid No. 38 with or without 1 μL other lipid", "value": "showing an effect close to the transfection reagent RNAiMAX"}]}, {"compound": "CCCCCCCCCCCCCCCCCCC[C@@H](O)[C@@H](N)CO", "note": "[lipid No. 41, Sphinganine (d22:0)]", "values": [{"measurement": "efficiency to deliver green fluorescent protein into A549 cells", "setting": "[1]; 10 μg/mL lipid, heating method 90° C. 15 min", "value": 5.5, "unit": "%"}, {"measurement": "efficiency to deliver green fluorescent protein into A549 cells", "setting": "[1]; [7]", "value": 23.4, "unit": "%"}, {"measurement": "efficiency to deliver green fluorescent protein into A549 cells", "setting": "[1]; 30 μg/mL lipid, heating method 90° C. 15 min", "value": 9.5, "unit": "%"}, {"measurement": "delivery effect of lipid, times that of RNAiMAX (RT-qPCR)", "setting": "[3]; HJT-sRNA-m7 double-stranded RNA, A549 cells, boiling method", "value": "about twice"}, {"measurement": "delivery effect of lipid compared with RNAiMAX (RT-qPCR)", "setting": "[3]; HJT-sRNA-m7 double-stranded RNA, A549 cells, reverse evaporation method", "value": "significantly higher than that of RNAiMAX"}, {"measurement": "delivery of single-stranded RNA into A549 cells (RT-qPCR)", "setting": "[3]; [8]", "value": "delivered HJT-sRNA-m7 single-stranded RNA into A549 and MRC-5 cells"}, {"measurement": "entry of small RNA into small intestinal cells", "setting": "[5]", "value": "could promote the entry of small RNA into small intestinal cells"}, {"measurement": "entry of small RNA into the blood", "setting": "[5]", "value": "could promote the entry of small RNA into the blood"}, {"measurement": "entry of small RNA into the liver", "setting": "[5]", "value": "could promote the entry of small RNA into the liver"}, {"measurement": "entry of small RNA into the stomach cells", "setting": "[5]", "value": "could promote the entry of small RNA into the stomach cells"}, {"measurement": "entry of green fluorescent protein into A549 cells (confocal microscope)", "setting": "[2]", "value": "could effectively deliver protein into A549 cells"}, {"measurement": "entry of PGY-sRNA-6-Cy3 into A549 cells (confocal microscopy)", "setting": "[6]", "value": "could effectively deliver double-stranded nucleic acid into A549 cells"}, {"measurement": "delivery effect of lipid compared with RNAiMAX (RT-qPCR)", "setting": "[4]; HJT-sRNA-m7 double-stranded RNA, MRC-5 cells, reverse evaporation method", "value": "significantly higher than that of RNAiMAX"}, {"measurement": "delivery of single-stranded RNA into MRC-5 cells (RT-qPCR)", "setting": "[4]; [8]", "value": "delivered HJT-sRNA-m7 single-stranded RNA into A549 and MRC-5 cells"}, {"measurement": "delivery of double-stranded RNA into MRC-5 cells (RT-qPCR)", "setting": "[4]; single lipid, boiling method", "value": "delivered double-stranded RNA into MRC-5 cells"}]}, {"compound": "green fluorescent protein", "values": [{"measurement": "efficiency of green fluorescent protein free entry into A549 cells", "setting": "[1]; no lipid", "value": 3.6, "unit": "%"}]}]}
